Source: publication PMC4336329 (PLoS ONE, 2015)
The whole screen tested about 310,000 compounds, of which about 14,000 (4.5%) showed an effect of 50% or more. The effect is printed as a negative number. The list shows a part of the results.

target: human ether-à-go-go-related gene (hERG) potassium channel (human, UniProt Q12809); test: primary screen, population patch clamp on CHO cells stably expressing hERG
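Also: peak tail current of the secondary pulse compared with the same well before compound.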

Sequence of human ether-à-go-go-related gene (hERG) potassium channel (Q12809 whole entry, looked up): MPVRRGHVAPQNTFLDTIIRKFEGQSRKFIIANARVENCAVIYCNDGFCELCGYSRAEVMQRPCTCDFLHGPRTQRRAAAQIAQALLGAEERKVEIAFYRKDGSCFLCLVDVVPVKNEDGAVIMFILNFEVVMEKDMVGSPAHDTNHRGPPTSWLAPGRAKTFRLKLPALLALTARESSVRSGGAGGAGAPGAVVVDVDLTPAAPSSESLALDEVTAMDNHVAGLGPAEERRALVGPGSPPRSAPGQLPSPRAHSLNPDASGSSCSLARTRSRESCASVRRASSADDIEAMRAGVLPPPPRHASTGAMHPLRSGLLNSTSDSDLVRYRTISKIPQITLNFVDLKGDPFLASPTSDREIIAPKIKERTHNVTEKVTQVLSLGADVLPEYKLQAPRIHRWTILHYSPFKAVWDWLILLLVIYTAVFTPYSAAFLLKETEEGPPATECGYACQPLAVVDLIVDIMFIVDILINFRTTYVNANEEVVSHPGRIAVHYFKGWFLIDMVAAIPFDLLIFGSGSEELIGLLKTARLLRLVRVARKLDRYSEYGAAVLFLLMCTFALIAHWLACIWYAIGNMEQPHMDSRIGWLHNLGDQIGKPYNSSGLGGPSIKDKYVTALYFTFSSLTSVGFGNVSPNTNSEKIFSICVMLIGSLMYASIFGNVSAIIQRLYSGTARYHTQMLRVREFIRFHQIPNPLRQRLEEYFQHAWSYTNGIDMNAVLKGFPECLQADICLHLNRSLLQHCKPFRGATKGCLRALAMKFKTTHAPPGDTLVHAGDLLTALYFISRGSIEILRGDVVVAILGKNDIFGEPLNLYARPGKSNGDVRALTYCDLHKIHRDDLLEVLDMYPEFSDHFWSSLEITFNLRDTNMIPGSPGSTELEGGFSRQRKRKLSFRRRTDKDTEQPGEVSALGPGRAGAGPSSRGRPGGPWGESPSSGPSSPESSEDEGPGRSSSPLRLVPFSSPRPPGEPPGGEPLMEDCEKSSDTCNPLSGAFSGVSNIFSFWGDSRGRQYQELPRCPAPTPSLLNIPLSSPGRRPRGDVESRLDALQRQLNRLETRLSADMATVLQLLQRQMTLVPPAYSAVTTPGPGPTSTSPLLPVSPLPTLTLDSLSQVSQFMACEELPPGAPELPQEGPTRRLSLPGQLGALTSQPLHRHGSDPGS

Row | SMILES | hERG current change (%, negative = inhibition) at 10uM [%]
1 | CC(C)SC1=NC(C)(C)C=C(/C=C/c2ccc(Cl)cc2Cl)N1 | 12.6
2 | COc1cc(C(=O)Oc2cccc(/C=N/NC(=O)c3cccnc3)c2)cc(OC)c1OC | -1.17
3 | COc1ccc(C(=O)NCCc2c[nH]c3ccccc23)cc1S(=O)(=O)N1CCCCC1C (stereo not shown) | -12
4 | N/C(=N\NS(=O)(=O)c1cc(C(F)(F)F)cc(C(F)(F)F)c1)c1ccccn1 | -17.5
5 | CC(/C=C/c1ccco1)=N/NC(=O)Cc1cccs1 | -8.68
6 | COCCNC(=O)Cn1c(=O)n(CCCC(=O)NCc2ccc3c(c2)OCO3)c(=O)c2sccc21 | -0.00342
7 | Cc1ccc(CSCC(=O)N/N=C/c2sccc2C)cc1 | 11.5
8 | CC(C1CC1)N(C(=O)c1ccccc1[N+](=O)[O-])c1ccccc1 (stereo not shown) | 1.39
9 | COc1cc(-c2nc3ccc4ccccc4c3c3c2CCC3)cc(OC)c1OC | 3.31
10 | CC1(C)N=C(N)NC(Nc2ccccc2)=N1 | 2.96
11 | C/C(=N\NC(=O)c1nn(C)c(C)c1Br)c1cccc(NC(=O)c2ccoc2C)c1 | -23.2
12 | CCCOc1ccc(N2C(=O)CC(N3CCN(c4ccc([N+](=O)[O-])cc4)CC3)C2=O)cc1 (stereo not shown) | -73.8
13 | CC(C)CN(CC(C)C)S(=O)(=O)N1CCC(C(=O)NCc2cccnc2)CC1 | 10.1
14 | Cc1ccc(Nc2nc(CSc3nnc(-c4ccc(F)cc4)n3C)cs2)cc1 | -46.2
15 | CCOc1ccc(N(CC(=O)NCC(C)C)S(C)(=O)=O)cc1 | 9.92
16 | O=C(Nc1ccc(NC(=O)c2ccncc2)cc1)c1ccncc1 | 24.2
17 | CCOC(=O)C1CCN(Cc2nc3ccc(Cl)cc3n2CCO)CC1 | -34.6
18 | COC(=O)c1sc(Nc2ccccc2)nc1C | 6.13
19 | COc1ccc(/C(C)=N/NC(=O)c2cc(C)[nH]n2)c(OC)c1 | 1.33
20 | CN(C)S(=O)(=O)c1cc(NC(=O)CSc2nn(-c3ccc(Cl)cc3)c(=S)s2)ccc1Cl | -0.516
21 | N/C(=N\OS(=O)(=O)c1ccc2ccccc2c1)c1ccncc1 | -35.6
22 | Cc1cccc2c(N=Nc3ccccc3)c(O)[nH]c12 | 14.4
23 | COc1ccc(C(=O)COC(=O)c2cccnc2Cl)c(OC)c1 | 0.265
24 | C/C(=N\Nc1ccc([N+](=O)[O-])cc1)c1ccc(-n2nncc2C)cc1 | 2.25
25 | CC(C(=O)Nc1ccc(S(=O)(=O)N2CCCCC2)cc1)N1CCN(c2ccccn2)CC1 (stereo not shown) | 11.5
26 | N/C(=N\OC(=O)CCCc1ccccc1)c1ccc([N+](=O)[O-])cc1 | -5.5
27 | CC(C)NC(=S)N/N=C1\CCCCc2ccccc21 | -21.1
28 | CCOc1cc(/C=C2\N=C3CCCCCN3C2=O)ccc1O | 4.6

Row | SMILES | hERG current change (%, negative = inhibition) at 10uM [%]
29 | C=CC1=C2C=C(C3CC3)N(CCCN(CC)CC)C=C2C(=O)C(C)(OC(=O)c2ccco2)C1=O (stereo not shown) | 0.664
30 | CCn1cc(C(=O)OCC(=O)Nc2cc(S(=O)(=O)N(C)C)ccc2C)c(=O)c2ccc(C)nc21 | -20.7
31 | O=S(=O)(N1CCCCC1)n1c(Cc2ccccc2)nc2ccccc21 | -3.18
32 | Cc1cc(C(F)(F)F)nn1Cc1ccc(C(=O)NCc2ccco2)o1 | 5.14
33 | CCOc1cc(CNCc2ccccn2)ccc1OCC(=O)NC1CCCCC1.Cl | -5.62
34 | COc1ccc(OC)c(-c2cc(C3CCN(C(=O)OC(C)(C)C)CC3)[nH]n2)c1 | 0.624
35 | Cc1cccc(COc2ccc(/C(O)=C3\C(=O)C(=O)N(CCN(C)C)C3c3ccncc3)cc2)c1 (stereo not shown) | 20.2
36 | COc1ccc(NC(=O)Cc2nnc(SCC(=O)NC3CCCC3)n2C)cc1 | 15.3
37 | O=C(CN1C(=O)c2ccccc2C1=O)N1CCN(c2ccccn2)CC1 | 11.4
38 | CCOC(=O)c1ccc(NC(=O)c2ccc[n+]([O-])c2)cc1 | 4.73
39 | CC/C(=N/OC(=O)c1cccc(C)c1)C(=O)c1cccs1 | -5.52
40 | COc1ccccc1-c1c(-c2ccc(O)cc2O)n[nH]c1C(F)(F)F | 12.8
41 | Cc1ccc(NCc2ccco2)cc1C.O=C(O)C(=O)O | 1.93
42 | CC(=O)c1ccc(NC(=O)c2c(C)nn(-c3ccccc3)c2Cl)cc1 | 30.3
43 | Cc1ccc(C(=O)NNC(=O)c2ccncc2)cc1C | 19.2
44 | COC(=O)c1ccc(N2C(=O)C3CC=CC(C)C3C2=O)cc1 (stereo not shown) | 19.3
45 | CC(=O)c1cc(C(=O)Nc2ccccc2C(=O)O)oc1C | 6.28
46 | CCC(=O)Nc1ccc(S(=O)(=O)Nc2cccc(C)c2)cc1OC | -15.6
47 | C=CCn1c(SCc2ccc3c(c2)OCO3)nc2scc(-c3ccco3)c2c1=O | -0.351
48 | O=C(NCC1CCCO1)c1cccc(Oc2c(Cl)cccc2[N+](=O)[O-])c1 (stereo not shown) | -0.562
49 | CCOC(=O)C1=C(C)N=C2c3ccccc3C(=O)C2C1c1ccc(C)cc1 (stereo not shown) | 12.7
50 | COc1ccc(NC(=O)C2CCCN2S(=O)(=O)c2ccc(F)cc2)cc1 (stereo not shown) | -16.6
51 | CC(CC(=O)NCc1ccco1)S(=O)(=O)c1ccc2c(c1)CCN2C(=O)C1CC1 (stereo not shown) | 5.62
52 | COc1ccccc1NC(=O)c1oc2ccc(C)cc2c1C | 14.1
53 | O=C(COc1ccc2c3c(c(=O)oc2c1)CCCC3)NCCN1CCOCC1 | 1.37
54 | CCOP(=O)(OCC)c1nc(/C=C/c2ccccc2)oc1NCc1ccc(OC)cc1 | -13.1
55 | COc1ccccc1NS(=O)(=O)c1c(C(=O)N2CCCC2)c(C)n(C)c1C | 14.8
